Experimental data taken from PubChem BioAssay AID1458 (National Center for Advancing Translational Sciences (NCATS), 2008).
About 5,900 (2.8%) of roughly 210,000 compounds were called active. The shares of active, inactive and inconclusive entries below differ from those in the screen. Calls come from the whole dose curve; as a rule, active = well fitted activation curve with a large enough effect; inconclusive = small, poorly fitted or top-dose-only effect; inactive = no such curve, though single readings can be large or run the other way. A potency beside an inconclusive call is a rough fit, not a confirmed value.

test: qHTS Assay for Enhancers of SMN2 Splice Variant Expression; conditions: HEK293 SMN2-luciferase splicing reporter, luminescence, 30-36 h; activity change, positive = activation: at 46.1 µM (top of the series); note: nearly all actives have a fitted effect of over 55% in size; for activity change, positive = activation: % of control where 0% means no effect
How it was run: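 qHTS luciferase splicing reporter: luminescence rises when SMN2 exon 7 is included in transfected HEK293 cells. Compound exposure lasted 30-36 h at 37C, with 4.5 mM final sodium butyrate as control, followed by a ONE-Glo read.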
Potency is the fitted concentration of half-maximal effect; tags give direction and shape of the fitted curve.

Row | SMILES | Potency | activity change, positive = activation
1 | Fc1ccc2c(c1)C(c1ccncc1)=NNC(c1ccc(Br)cc1)=N2 | inactive | –
2 | CCCCn1c(N)c(N(CC)C(=O)c2cccc(OC)c2)c(=O)[nH]c1=O | inconclusive: 31.6 µM [activator, single point] | –
3 | CCc1nn2c(N)c(/C=C3\C=Nc4ccccc43)c(=O)nc2s1 | inactive | –
4 | CCCOc1c(Br)cc(C(=O)NCC)cc1OC | inconclusive: 35.5 µM [activator, partial curve, poor fit] | –
5 | CCOC(=O)c1ccccc1NC(=O)NCc1cccn1Cc1ccc(F)cc1 | inactive | –
6 | COc1cc(Cl)c(C)cc1NC(=O)c1cccc(OC)c1OC | inconclusive: 11.2 µM [activator, partial curve] | –
7 | CCOc1ccc(NC(=O)c2sc3nc4c(cc3c2N)CN(Cc2ccccc2)CC4)cc1 | inactive | –
8 | COc1ccc(C2Nc3ccccc3C(=O)N2c2ccc(F)cc2)cc1Cn1nnc2ccccc21 (stereo unspecified) | inconclusive: 15.8 µM [activator, single point] | –
9 | Cc1cccnc1NC(=S)Nc1ccc(Br)cc1Cl | active: 25.1 µM | –
10 | CCCCOc1ccc(C2=NNC(=O)CC2)cc1 | – | inactive: -7.31% [at 1.84 µM]
11 | O=[N+]([O-])c1cc(-c2nnc(-c3ccccc3)o2)ccc1Oc1ccc(Cl)cc1 | inconclusive: 35.5 µM [activator, single point] | –
12 | O=C(Nc1cccc(C(=O)O)c1)/C(=C\c1ccc2c(c1)OCO2)NC(=O)c1ccc(Br)o1 | inconclusive: 35.5 µM [activator, single point] | –
13 | CCOC(=O)C1C(=O)N(C(=O)c2ccc(OC)cc2)CC1c1ccccc1 (stereo unspecified) | inconclusive: 0.0028 µM [activator, full curve, poor fit] | –
14 | Cc1onc(-c2ccccc2)c1C(=O)N1CCN(CCc2ccccc2)CC1 | inconclusive: 0.0032 µM [activator, full curve] | –
15 | CC(/C=C1\SC(=O)N(CCCC(=O)O)C1=O)=C\c1ccccc1 | inactive | –
16 | CCOC(=O)c1ccc(NC2=CC(=O)C(=O)c3ccccc32)cc1 | inconclusive: 35.5 µM [activator, single point] | –
17 | N/C(=N\OC(=O)c1ccccc1Cl)c1ccccc1 | active: 11.2 µM | –
18 | CCOC(=O)c1cccc(NC(=O)CSc2nc3cc4ccccc4cc3[nH]2)c1 | inconclusive: 11.2 µM [activator, partial curve, poor fit] | –
19 | O=C1OC(c2ccc(F)cc2)=C/C1=C\c1ccc([N+](=O)[O-])o1 | inactive | –
20 | Cc1ccccc1C(=O)Nc1cccc(N)c1 | inconclusive: 5.01 µM [activator, full curve] | –
21 | COc1ccc(/C=C/C(=O)N(C)C2CCS(=O)(=O)C2)cc1OC (stereo unspecified) | inconclusive: 0.004 µM [activator, full curve, poor fit] | –
22 | CN(C)c1ccc(NC(N)=S)cc1 | inconclusive: 0.794 µM [activator, partial curve, poor fit] | –
23 | COc1ccc(CN=C2NN=C(c3ccccc3)CS2)cc1 | inconclusive: 3.98 µM [activator, single point] | –
24 | CC(C)c1nnc(NC(=O)C2CCCCC2)s1 | inconclusive: 14.1 µM [activator, partial curve, poor fit] | –
25 | COc1ccc(C(=O)c2cc3cccc(OC)c3o2)cc1 | active: 14.1 µM | –
26 | COc1cc(N2CCCC2)c(OC)cc1/C=C(/C#N)c1cccc(Br)c1 | inconclusive: 3.98 µM [activator, single point] | –

Row | SMILES | Potency | activity change, positive = activation
27 | O=C(O)c1ccc(N2C(=O)c3cccnc3C2=O)cc1 | inconclusive: 35.5 µM [activator, partial curve, poor fit] | –
28 | O=C(O)CCC(=O)N1CCN(c2cccc(Cl)c2)CC1 | inconclusive: 3.55 µM [activator, full curve, poor fit] | –
29 | O=C(Nc1ccc(F)cc1)Nc1ccc(N2CCOCC2)c2nonc12 | inconclusive: 5.01 µM [activator, full curve] | –
30 | CCOCCOC(=O)c1cccc(NC(=O)OCC)c1 | inactive | –
31 | NC1(C(=O)O)CCc2cc(P(=O)(O)O)ccc21 (stereo unspecified) | inactive | –
32 | CC1C/C(=N/O)C(C)CN1 (stereo unspecified) | inactive | –
33 | Cc1ccc(NC(=O)Cn2c(-c3nonc3N)nc3ccccc32)cc1C | active: 10 µM | –
34 | CCc1ccc(S(=O)(=O)c2cn(C)c3cc(F)c(F)cc3c2=O)cc1 | inactive | –
35 | COc1cccc(Nc2n[nH]c(=S)s2)c1 | inconclusive: 4.47 µM [activator, partial curve, poor fit] | –
36 | O=C(O)CCc1nn2c3ccccc3n(CC(=O)c3ccccc3)c2nc1=O | inconclusive: 35.5 µM [activator, single point] | –
37 | CN(C)c1cc[n+](CC(=O)c2ccc(Br)cc2)cc1 | inactive | –
38 | CC(=O)Nc1cccc(-c2cnc3ccccc3n2)c1 | inconclusive: 15.8 µM [activator, single point] | –
39 | Cc1ccc(CNC(=O)c2cnccn2)cc1 | inconclusive: 0.282 µM [activator, full curve, poor fit] | –
40 | CCn1cc(C2Nc3ccccc3C(=O)N2O)c(C)n1 (stereo unspecified) | inconclusive: 11.2 µM [activator, partial curve, poor fit] | –
41 | Cc1nc2ccc(S(=O)(=O)Nc3ccc(-c4nc5cccnc5s4)cc3)cc2s1 | inconclusive: 17.8 µM [activator, partial curve] | –
42 | COc1cc(-c2nnc3sc(-c4ccco4)nn23)cc(OC)c1OC | inconclusive: 0.0631 µM [activator, full curve, poor fit] | –
43 | Cc1cc(N2CCCC2)n2nc(C)c(-c3ccccc3)c2n1 | active: 11.2 µM | –
44 | CCSc1nnc(NC(=O)c2cnccn2)s1 | inactive | –
45 | Cn1c(=O)c(CCc2ccccc2)nc2cnc(N3CCNCC3)nc21 | inconclusive: 35.5 µM [activator, single point] | –
46 | CCOc1ccccc1Nc1nnc(SCC(=O)NC(=O)c2cccn2C)s1 | inconclusive: 0.0355 µM [activator, full curve] | –
47 | Cc1ccc(-c2nnn(CCC(=O)NC(C)(C)C)n2)cc1 | inconclusive: 11.2 µM [activator, partial curve, poor fit] | –
48 | Cc1nc(NC2CCCCC2)c2nc(-c3ccccc3)n(CCN(C)C)c2n1 | inactive | –
49 | Cc1nc(/C=[N+](\[O-])C(C)(C)/C=N/O)n(O)c1C | inconclusive: 3.55 µM [activator, partial curve, poor fit] | –
50 | COc1cc(NC(=O)c2cc3ccccc3o2)c(OC)cc1Br | inactive | –
51 | CC(Sc1nc2ccccc2o1)C(=O)O (stereo unspecified) | inactive | –
52 | CNC(=O)c1c(NC(=O)Cc2coc3ccc(C)cc23)sc2c1CCCC2 | inconclusive: 35.5 µM [activator, single point] | –

Row | SMILES | Potency | activity change, positive = activation
53 | CCOc1ccc(NC(=O)Cn2nnc(C(=O)NCCc3ccccc3)c2N)cc1 | inactive | –
54 | Cc1nnc2n(c1=O)N=C(c1ccc(Cl)cc1)CS2 | active: 2 µM | –
55 | CCOc1ccc2nc(NC(=O)c3ccc(OC)c(S(=O)(=O)N4CCOCC4)c3)sc2c1 | inactive | –
56 | Cc1ccc(C(=O)NC(=S)Nc2ccc3c(c2)OCCO3)c(C)c1 | inactive | –
57 | Cc1nc2cc(NC(=O)Nc3ccc(Br)cc3)ccc2o1 | active: 11.2 µM | –
58 | COc1ccc(NC(=S)NCc2cccs2)cc1 | inconclusive: 17.8 µM [activator, partial curve, poor fit] | –
59 | O=C(Nc1nnc(-c2ccccc2F)s1)c1cccnc1 | inconclusive: 12.6 µM [activator, partial curve] | –
60 | Cc1ccc(C)c(S(=O)(=O)Nc2ccccc2C(=O)Nc2ccc(S(=O)(=O)Nc3ncccn3)cc2)c1 | inactive | –
61 | COC(=O)C1C(=O)C2=C(CC1C)NC(C)=C(C(=O)OCc1ccc(OC)cc1)C2c1ccc(C)o1 (stereo unspecified) | inconclusive: 12.6 µM [activator, partial curve, poor fit] | –
62 | CCOc1ccc(-n2c(=O)c3c(C)c(C)sc3n(CC(=O)N3CCC(C)CC3)c2=O)cc1 | inactive | –
63 | COCCNC(=O)c1cccc(Nc2nc(-c3ccccc3)c3cc(Cl)ccc3n2)c1 | inactive | –
64 | O=C(NCC1CCCO1)c1cc2ccccc2nc1Cl (stereo unspecified) | inconclusive: 22.4 µM [activator, single point] | –
65 | COc1ccc2c(c1)nc1n2CN(CC2CCCO2)CN1Cc1ccccc1 (stereo unspecified) | inconclusive: 0.224 µM [activator, single point] | –
66 | Cc1cc(C(=O)COC(=O)c2n[nH]c3ccccc23)c(C)n1C | active: 2.82 µM | –
67 | CC(=O)CSc1nc2ccccc2o1 | inactive | –
68 | O=c1cc(-c2ccccc2Cl)oc2c(Br)ccc(O)c12 | active: 10 µM | –
69 | COc1ccc(-c2nn(-c3ccccc3)cc2/C=N/NC(=O)c2ccc(Br)o2)cc1 | inactive | –
70 | Cc1ccc2cc(CN(CC(C)C)C(=O)C3CCCO3)c(=O)[nH]c2c1 (stereo unspecified) | inconclusive: 0.0141 µM [activator, full curve, poor fit] | –
71 | CCNc1ncc2nc(-c3ccc(F)cc3)c(=O)n(CCC#N)c2n1 | inactive | –
72 | CC1=NN(c2ccccc2)C(=O)/C1=C/C=C/c1ccccc1 | inactive | –
73 | Cc1nnc(SCC(=O)NC2CCS(=O)(=O)C2)n1Cc1ccccc1 (stereo unspecified) | inconclusive: 0.0045 µM [activator, full curve, poor fit] | –
74 | O=C(CNc1ccccc1)N/N=C/c1ccc2c(c1)OCCO2 | inconclusive: 15.8 µM [activator, partial curve, poor fit] | –
75 | Cc1ccc(C(=O)n2c(-c3ccccc3)cnc2SCC(=O)Nc2ccc(C)cc2C)cc1 | inconclusive: 0.891 µM [activator, full curve, poor fit] | –
76 | Oc1ccc(-c2cn3cc(C(F)(F)F)ccc3n2)cc1 | active: 0.891 µM | –
